# According to PubChem BioAssay AID504832 (National Center for Advancing Translational Sciences (NCATS), 2011):
# Out of some 310,000 compounds screened, about 18,000 (5.8%) were called active. Inconclusive results, whose numbers are uncertain, are shown with a selection of clear calls. Calls follow the shape of the dose curve; as a rule, active = well fitted inhibition curve with a large enough effect; inconclusive = small, poorly fitted or top-dose-only effect, or another doubt; inactive = no such curve, though single readings can be large or run the other way. No potency is given beside an inconclusive call; the fits are too rough.
# Assay: Primary qHTS for delayed death inhibitors of the malarial parasite plastid, 48 hour incubation
# Settings: P. falciparum luciferase growth in erythrocytes; series mostly up to 28.7 µM; activity change, negative = inhibition: at the top concentration
# Outline: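 Parasite viability was followed by luminescence of a genomically integrated firefly luciferase. Cultures held 0.1% parasitemia at 2% hematocrit (final), incubated under 5% CO2 at 37 C.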
# % is scaled to controls: 0 for no effect and ±100 for the full control effect; potency is read from the fitted curve at half-maximal effect; tags tell the direction and shape of the fitted curve.
SMILES,Potency,"activity change, negative = inhibition"
CCC(=O)N1CCN(c2ccccc2NC(=O)Cc2ccccc2)CC1,active: 10.4 µM,
CCCn1nc(C(=O)NNC(=O)CCOc2ccccc2OCC)c2ccccc2c1=O,"inconclusive [inhibitor, partial curve, poor fit]",
COc1ccc([C@H]2CC(=O)C=C(c3ccc4[nH]ccc4c3)C2)cc1OC,"inconclusive [inhibitor, single point]",
O=C(Nc1ccc(F)c(F)c1)c1ccco1,"inconclusive [inhibitor, single point]",
Cn1c(SCC2CCCO2)nnc1-c1cccc([N+](=O)[O-])c1 (stereo not given),,inactive: 45.1%
Cc1csc(SCC(=O)Nc2cc([N+](=O)[O-])ccc2F)n1,"inconclusive [inhibitor, single point]",
CC1CCC(NC(=O)CN2C(=O)NC(C)(C)C2=O)CC1 (stereo not given),,inactive: 17.7%
Cn1c(SCC(=O)Nc2ccc(C(N)=O)cc2)nnc1-c1cccs1,,inactive: -3.46%
CCOc1ccc(/C=C/C2=Cc3c(sc(NC(=O)CSc4n[nH]c(N)n4)c3C#N)C(C)(C)C2)cc1,active: 10.4 µM,
CC1CN=C(NC(C)c2ccccc2)S1 (stereo not given),"inconclusive [inhibitor, single point]",
CC(CN(C)C)CN1c2ccccc2Sc2ccc(C(F)(F)F)cc21 (stereo not given),active: 15.1 µM,
NC(=O)CC(NSc1ccccc1[N+](=O)[O-])C(=O)O (stereo not given),,inactive: 4.03%
Cc1cc(N2CCN(C)CC2)nc2ccc(NC(=O)CCC(=O)NCCc3ccc(Cl)cc3)cc12,active: 11.7 µM,
CN1CCN(c2ccc([N+](=O)[O-])c3no[n+]([O-])c23)CC1,"inconclusive [inhibitor, full curve, poor fit]",
COc1ccc(CCNC(=O)CSc2cn(Cc3cccc(C)c3)c3ccccc23)cc1OC,"inconclusive [inhibitor, partial curve]",
Cc1ccc(Nc2c(-c3ccccn3)nc3cc(C)ccn23)cc1,"inconclusive [inhibitor, partial curve]",
O=C(Cn1cnc2c(cnn2-c2ccccc2)c1=O)OCc1ccccc1,,inactive: 40.5%
O=C(NCC(c1ccco1)N1CCCC1)c1ccccc1Sc1ccc(C(F)(F)F)cc1[N+](=O)[O-] (stereo not given),"inconclusive [inhibitor, single point]",
COc1ccc2[nH]c(C(=O)O)c(CCNC(C)=O)c2c1,"inconclusive [inhibitor, partial curve, poor fit]",
COc1cc(C(=O)Nc2cccc(S(=O)(=O)N3CCCC3)c2)cc(OC)c1C,"inconclusive [inhibitor, partial curve]",
CN(C)c1cc[n+](CC(=O)Nc2cccc([N+](=O)[O-])c2)cc1,"inconclusive [inhibitor, partial curve]",
C1=C[C@@H]2CCN(Cc3ccccc3)Cc3cccc(c32)C1,active: 8.28 µM,
C#CCn1c(=NC(=O)c2ccc(Br)s2)sc2cccc(OC)c21,"inconclusive [inhibitor, single point]",

SMILES,Potency,"activity change, negative = inhibition"
CN(CCOc1cccc2ccccc12)Cc1ccccc1,,inactive: -10.6%
O=C(N/N=C/C(Cl)=C/c1ccccc1)c1ccncc1,"inconclusive [inhibitor, single point]",
Cc1cc(C)c2nc3nc(C)c(C)cc3c(N)c2c1,active: 4.15 µM,
O=C(CCCN1C(=O)/C(=C/c2cccs2)SC1=S)Nc1ccccn1,"inconclusive [inhibitor, single point]",
COc1ccc2c(c1)C(=O)N(Cc1ccccc1)C(=O)C2(C)C,"inconclusive [inhibitor, single point]",
CCCCNC(=O)Nc1ncn[nH]1,,inactive: 23.9%
Clc1cccc(N/N=C/c2ccncc2)c1,active: 2.62 µM,
CCOC(=O)CNc1nc(C(C)(C)C)nc2c1nnn2Cc1ccccc1,"inconclusive [inhibitor, partial curve, poor fit]",
COc1ccc(CCN2CCCC(CN(C)Cc3cc(OC)ccc3OC)C2)cc1 (stereo not given),"inconclusive [inhibitor, single point]",
CCCN(CCC)C(=O)Cn1c(=O)n(CCCCC(=O)NC2CCCC2)c(=O)c2ccccc21,,inactive: -14.2%
Cc1ccc(NC(=O)CCNC(=O)c2ccc([N+](=O)[O-])cc2)cc1S(=O)(=O)N1CCOCC1,"inconclusive [inhibitor, partial curve, poor fit]",
Cc1cc2c(=O)n(C)c(SCC(=O)NC3CCCC3)nc2s1,"inconclusive [inhibitor, partial curve, poor fit]",
COc1ccc(C(C)=O)cc1CC(=O)Nc1ccccc1-c1ccccc1,"inconclusive [inhibitor, single point]",
Cc1cc(S(=O)(=O)NCC(c2ccccc2)c2ccccc2)ccc1-n1cnnn1,"inconclusive [inhibitor, single point]",
COc1ccc(C(=O)NC2c3ccccc3-c3ccccc32)cc1,,inactive: 14.1%
CCC(C)(C)n1nnnc1CN(Cc1ccco1)Cc1cc2cc3c(cc2[nH]c1=O)OCO3,"inconclusive [inhibitor, partial curve, poor fit]",
CNC[C@H](CC1CCCCC1)NC[C@H](CO)NCC1(c2ccccc2)CC1,"inconclusive [inhibitor, full curve]",
COc1ccc(N2CCN(S(=O)(=O)c3ccc(C(=O)NC4CCCC4)cc3)CC2)cc1,"inconclusive [inhibitor, full curve]",
CC(C)OC(=O)Nc1ccc(Oc2c(F)c(F)c(F)c(F)c2F)cc1,"inconclusive [inhibitor, full curve]",
N=c1n(CCN2CCCCC2)c2ccccc2n1CC(=O)c1cccs1,active: 11.7 µM,
CCOC(=O)c1nc(Nc2ccccc2CC)c2ccccc2n1,"inconclusive [inhibitor, full curve, poor fit]",
O=C(NNS(=O)(=O)c1ccc(Cl)cc1)c1cc(-c2ccccc2)nc2ccccc12,,inactive: -2.08%
